Measured values published in PubChem BioAssay AID743279 (National Center for Advancing Translational Sciences (NCATS), 2014).
The whole screen tested about 360,000 compounds, of which about 17,000 (4.7%) were called active. The shares of active, inactive and inconclusive entries below differ from those in the screen. Rule as the data show it: active = activity change below about -50%; inconclusive = mostly about -30% to -49%; inactive = weaker than that.

experiment: qHTS for Inhibitors of Inflammasome Signaling: IL-1-beta AlphaLISA Primary Screen; details: THP-1 LPS/ATP IL-1B secretion, 16 h, at 57.5 µM, active compounds read low
Method in brief: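 THP-1 cells pretreated 1 hr with compounds (up to 57.5 uM final), then stimulated with LPS (250 ng/mL final) plus ATP (1.25 mM final); secreted IL-1B measured by AlphaLISA after 16 hr, decreased signal indicating inhibition.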
% is scaled to controls: 0 for no effect and ±100 for the full control effect.

Structure (SMILES) | activity change
O=C1NC(=O)N(c2ccccc2)C(=O)/C1=C/c1ccoc1 | inactive: 19.9%
CC(C)(C)C(=O)O[C@H]1CC[C@@]2(C)C(=CC(=O)C3C2CC[C@]2(C)C(=O)[C@@H](F)CC32)C1 (some centres not stated) | active: -77.1%
CN1CC(C(=O)c2ccc(Cl)cc2)C(c2ccccc2F)C1 (configuration not stated) | inconclusive: -31.7%
O=C(CN1CC(c2ccccc2)CC1=O)Nc1ccccc1 (configuration not stated) | inconclusive: -33.4%
CNC(=O)O/N=C(\N)Cc1csc2ccc(Cl)cc12 | inconclusive: -37.5%
Cc1cccc(C)c1-n1nnnc1C(c1ccnc2ccccc12)N1CCC2(CC1)C(=O)NCN2c1ccccc1 (configuration not stated) | inconclusive: -30.8%
Cc1ccc(/C=C2\C(=O)NC(=S)N(c3ccc(F)cc3)C2=O)s1 | active: -108%
O=C1NC(=O)N(c2ccc(Cl)cc2)C(=O)/C1=C/c1coc2ccc(O)cc2c1=O | inconclusive: -35.4%
C=C1C(=O)O[C@@H]2C[C@@H](C)[C@H]3C=CC(=O)[C@]3(O)C[C@@H]12 | active: -98.8%
CC12CCC(O)CC1CCC1C2CCC2(C)C(C(=O)CC(O)C(F)(F)F)CCC12 (configuration not stated) | inactive: 15.6%
N#Cc1ccc(N2CCNCC2)c(F)c1 | inactive: 10.2%
COP(=O)(C#Cc1ccccc1)C(O)c1ccc(Br)cc1 (configuration not stated) | inactive: 3.34%
O=[N+]([O-])c1ccc(N2CCOCC2)c2c1no[n+]2[O-] | active: -105%
O=C1NC(=O)N(c2ccc3c(c2)OCO3)C(=O)/C1=C/c1cccs1 | active: -104%
CC(C)(C)NC(=S)/N=C(\N)N[N+](=O)[O-] | inactive: 43.2%
O=C1NCN(c2ccccc2)C12CCN(C(c1ccnc3ccccc13)c1nnnn1Cc1ccccc1)CC2 (configuration not stated) | active: -51.4%
O=C(CCN1CCCCC1)Nc1ccc(Br)cc1C(=O)c1ccccc1 | inconclusive: -38.4%
COc1ccccc1N1CCN(Cc2ccc(Br)s2)CC1 | inconclusive: -30.8%
O=c1c2ccccc2nc(/C=C/c2ccccn2)n1-c1ccccc1 | inconclusive: -43.2%

Structure (SMILES) | activity change
COC(=O)C1=C(c2ccc(-c3ccccc3)c(F)c2)C[C@@H]2CC[C@H]1N2C(=O)N1CCc2cc(OC)c(OC)cc2C1 | inconclusive: -35.4%
O=C(NCCN1CCC2(CC1)C(=O)NCN2c1cccc(F)c1)c1ccc2ccccc2c1 | inconclusive: -49.7%
COc1ccc(-n2c(/C=C/c3ccc4c(c3)OCO4)nc3ccccc3c2=O)cc1 | inactive: -8.39%
O=C1NC(=O)C(=Cc2ccc3ccccc3c2)C(=O)N1 | inconclusive: -37.4%
Cc1cccc2nc(-c3ccccc3)c(-c3ccc(CN4CCC(n5c(=O)[nH]c6ccccc65)CC4)cc3)nc12 | active: -51.2%
CSc1ccccc1C(=O)C1CCCN(Cc2cccc(C)n2)C1 (configuration not stated) | active: -75.3%
CC[n+]1c(/C=C/C=C/c2ccc(N(C)C)cc2)sc2ccccc21 | active: -97.2%
COC(=O)C1C2c3ccccc3C(c3ccccc32)C1C(=O)OC (configuration not stated) | inactive: -2.3%
CCN1CCC2(CCNC2)C1 (configuration not stated) | inactive: -29.2%
Cc1cc(OCCCC(=O)NCc2cccs2)ccc1Cl | inactive: -0.719%
Cn1cc([N+](=O)[O-])c(C(=O)Nc2ccc3c(C(F)(F)F)cc(=O)oc3c2)n1 | active: -95%
COc1ccccc1N1CCN(CCc2c[nH]c3cc4c(cc23)OCO4)CC1 | inconclusive: -49%
CCOc1cc2c(cc1OCC)-n1cccc1C(c1cccc(F)c1)NC2 (configuration not stated) | inconclusive: -37.5%
Oc1cc(Cl)ccc1Oc1ccc(Cl)cc1Cl | active: -69.7%
COc1ccc(C2CN(C)CC2C(=O)c2ccc(C)cc2)cc1Cl (configuration not stated) | inconclusive: -36.3%
CCCCCCn1c(N)c(C(=O)NCCN2CCOCC2)c2nc3ccccc3nc21 | active: -73.2%
CC(C)(C)N1C(=O)NC(=O)/C(=C\c2ccc3c(c2)CCN3CCCCl)C1=O | inactive: 51.6%
COc1cccc(CCNCc2ccc(SC)cc2)c1 | active: -64.5%
CCOC(=O)[C@]12Cc3cc(OC)ccc3[C@H]1N(C1CCCCC1)C(=O)c1ccccc12 | active: -122%

Structure (SMILES) | activity change
O=Cc1cn(Cc2ccccc2[N+](=O)[O-])c2ccccc12 | inconclusive: -35.5%
Cc1ccc(-c2nc(N(C)C3CCN(C)CC3)c3ccccc3n2)cc1 | active: -89.7%
CCOC(=O)[C@]12Cc3c(cc(OC)c(OC)c3OC)[C@H]1N(Cc1ccccc1)C(=O)c1ccccc12 | inconclusive: -39.2%
COc1ccc(-n2nnnc2C(c2ccccc2)N2CCC(n3c(=O)[nH]c4ccccc43)CC2)cc1 (configuration not stated) | inconclusive: -40.8%
O=[N+]([O-])c1c2ccccc2cc2ccccc12 | inconclusive: -35.2%
Cc1cccc(OCC(O)CN2CC2)c1 (configuration not stated) | inconclusive: -31.9%
COP(=S)(OC)SCN1C(=O)c2ccccc2C1=O | inactive: 12.9%
COC(=O)C1=C(c2ccccc2OCc2ccccc2)C[C@@H]2CC[C@H]1N2C(=O)NCc1ccc(Br)cc1 | inconclusive: -32.7%
CC1CN=C(Nc2ccc(N(C)C)cc2)S1 (configuration not stated) | inconclusive: -32.4%
COc1cc(/C=C/c2nc3ccccc3c(=O)n2-c2ccccc2O)ccc1O | active: -65.8%
C/C(=C\c1ccc(N(C)C)cc1)[N+](=O)[O-] | active: -107%
Cc1cc(OCC(=O)N2CCC(C(=O)O)(c3ccccc3)CC2)c2c(C)c(C)c(=O)oc2c1 | inactive: 18%
S=C(NCCc1ccccc1)N1Cc2ccc(Br)cc2-n2nncc2C1 | inconclusive: -35.7%
c1ccc(C2(NC3=NCCO3)CCCCC2)cc1 | inconclusive: -34.2%
CCn1c(O)c(C=NCCN2CCOCC2)c(=O)[nH]c1=S | inactive: 23.8%
CN1CCN(c2nc(N)c(Br)c(Cl)n2)CC1 | inconclusive: -30.4%
CC(C)(C)n1c(O)c(C=Nc2ccc3c(c2)CCC3)c(=O)[nH]c1=O | inactive: 2.12%
O=[As](O)(O)c1ccc(N=Nc2ccc(O)cc2)cc1 | inconclusive: -41.9%
COc1ccc(/C=C/C=C2C(=O)NC(=S)NC2=O)cc1 | inconclusive: -45%
